# From PubChem BioAssay AID651820 (National Center for Advancing Translational Sciences (NCATS), 2012)
# Out of some 340,000 compounds screened, about 12,000 (3.5%) were called active. The shares of active, inactive and inconclusive entries below differ from those in the screen. Calls come from the whole dose curve; as a rule, active = well fitted inhibition curve with a large enough effect; inconclusive = small, poorly fitted or top-dose-only effect, or another doubt; inactive = no such curve, though single readings can be large or run the other way. Potencies of inconclusive entries are left out as doubtful fits.
# Experiment: qHTS Assay for Inhibitors of Hepatitis C Virus (HCV)
# Details: Huh7.5.1 HCVcc-Cre (HCVcc is cell-culture hepatitis C virus) infection, luciferase reporter, 44 h; activity change, negative = inhibition: at 41.8 µM (top of the series)
# In short: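 Infectious HCVcc-Cre (~0.5 moi) was added to cells just after compound, with cells seeded 4 h earlier at 1,000 per well. Luciferase activity after 44 h culture reported infection; substrate was incubated 15 min at room temperature before reading.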
# % is set by controls: 0 for no effect and ±100 for the full control effect; potency is the fitted concentration of half-maximal effect; tags give direction and shape of the fitted curve.
Structure (SMILES),Potency,"activity change, negative = inhibition"
COc1ccc(C(=O)Nc2ccc(Br)cn2)cc1S(=O)(=O)N1CCOCC1,"inconclusive [inhibitor, single point]",–
Cc1cccc(Cl)c1NC(=O)N1CCCN(c2nc3ccc(Cl)cc3s2)CC1,active: 7.08 µM,–
S=C(c1ccc(-c2cc(Cl)ccc2Cl)o1)N1CCCCC1,"inconclusive [inhibitor, single point]",–
COc1ccc(N=C2SCC(c3ccc([N+](=O)[O-])cc3)=NN2CCO)cc1,–,inconclusive: -42.9% [inhibitor]
CCOC(=O)CSc1nnc(-c2cccc(Br)c2)o1,inactive,–
COc1ccc(-c2cc(C(=O)Nc3cccnc3Cl)no2)cc1,"inconclusive [inhibitor, partial curve]",–
c1ccc(COc2ccccc2CNCc2cccnc2)cc1,"inconclusive [inhibitor, single point]",–
CCOC(=O)CSc1nc2c(sc(=S)n2Cc2ccco2)c(=O)n1-c1ccccc1,"inconclusive [inhibitor, partial curve]",–
O=C(Cn1nnc2ccccc21)N1CCCCC1,inactive,–
CC(C)(C)c1cc(NC(=O)CSc2nncs2)n(-c2ccccc2)n1,"inconclusive [inhibitor, partial curve]",–
O=C(NN1CCOCC1)c1ccccc1NS(=O)(=O)c1ccc(F)cc1F,inactive,–
Cc1ccccc1NC(=O)Cn1cnc2c1c(=O)n(C)c(=O)n2C,"inconclusive [inhibitor, single point]",–
CCNCCNc1ccc([N+](=O)[O-])c2cccnc12,inactive,–
CCc1nn(-c2ccccc2)c(=S)c2ccccc12,"inconclusive [inhibitor, partial curve]",–
Cc1ccc(S(=O)(=O)N2CCN(CC(O)c3ccccc3)CC2)cc1 (stereo not drawn),"inconclusive [inhibitor, single point]",–
COc1ccc(Cn2c(C)nc3c(c2=O)c2nc4ccccc4nc2n3Cc2ccco2)cc1,"inconclusive [inhibitor, partial curve]",–
Cc1nn(-c2ccccc2)c(C)c1/C=C/C(=O)OCC(=O)Nc1ccc(S(N)(=O)=O)cc1,inactive,–
OCCNc1nc(Nc2ccccc2)nc2ccccc12,"inconclusive [inhibitor, partial curve, poor fit]",–
Cc1cccc(N2CCN(C(=O)CCn3c(=S)[nH]c4cc5c(cc4c3=O)OCO5)CC2C)c1 (stereo not drawn),"inconclusive [inhibitor, single point]",–
CN(c1ccc(F)cc1)S(=O)(=O)c1ccc(Cl)c(C(=O)Nc2ccncc2)c1,"inconclusive [inhibitor, partial curve]",–
C/C(=C\c1cccs1)C(=O)c1c(C)cc(C)[nH]c1=O,inactive,–
CCOC(=O)c1c(-c2ccc(C)o2)csc1NC(=O)CN1CCCCC1,"inconclusive [inhibitor, single point]",–
O=C(NCc1ccco1)C1CCCN(S(=O)(=O)c2cccc3nsnc23)C1 (stereo not drawn),"inconclusive [inhibitor, single point]",–
Cc1ccc(Cn2cccc(-c3nc4ccccc4s3)c2=O)cc1,"inconclusive [inhibitor, single point]",–
CSc1nc2nccc(/C=C\c3ccccc3)n2n1,"inconclusive [inhibitor, single point]",–

Structure (SMILES),Potency,"activity change, negative = inhibition"
O=C(CCCCl)NC(=S)Nc1cc(C(F)(F)F)ccc1N1CCOCC1,"inconclusive [inhibitor, partial curve]",–
N#CC(C#N)=Cc1ccc(-c2ccccc2)o1,inactive,–
COc1cc(OC)cc(C(=O)Nc2nc(-c3ccccc3)c(-c3ccccc3)o2)c1,active: 7.08 µM,–
N#Cc1ccsc1NC(=O)CN(Cc1ccccc1)Cc1ccccc1,inactive,–
O=C(NCc1ccccc1CN1CCCC1)c1cc2ccccc2o1,"inconclusive [inhibitor, single point]",–
Cn1c(Sc2nc3ccccc3n2C)nc2ccccc21,inactive,–
CC1=CC(C/C(C)=C/COc2ccc3ccc(=O)oc3c2)OC1=O (stereo not drawn),inactive,–
Cc1ccc(Nc2nc(C(=O)N3CCC(C(=O)NCc4ccccc4)CC3)cs2)cc1,"inconclusive [inhibitor, full curve, poor fit]",–
Cc1ccc(S(=O)(=O)Nc2ccc3c(c2)nc(CCN2CCN(c4ccccn4)CC2)n3C)cc1,"inconclusive [inhibitor, single point]",–
COc1ccc(C(=O)COC(=O)c2cc([N+](=O)[O-])ccc2N2CCOCC2)c(OC)c1,active: 1 µM,–
COc1cccc(C2CC(C(F)(F)F)n3ncc(C(=O)NCc4ccco4)c3N2)c1 (stereo not drawn),"inconclusive [inhibitor, single point]",–
Cc1ccccc1NC(=NCCCN1CC1)Nc1ccccc1C,"inconclusive [inhibitor, partial curve]",–
Cc1ccc(N=Cc2c(O)c3ccccc3n(C)c2=O)cc1,inactive,–
CC1(C)C2CCC1(C)C(OCC[N+](C)(C)CC(=O)OC1CCCCC1)C2 (stereo not drawn),inactive,–
Nc1ccc(C(=O)N2CCN(S(=O)(=O)c3ccc(Br)cc3)CC2)cc1[N+](=O)[O-],inactive,–
Fc1ccc(CSc2ncnc3sc4c(c23)CCCC4)cc1,active: 11.2 µM,–
Clc1ccc(-c2ccc(C=Nc3ccc(N4CCOCC4)cc3)o2)cc1,inactive,–
COc1ccccc1N/C=C(\C#N)c1nc2ccccc2[nH]1,"inconclusive [inhibitor, full curve]",–
CC(C)Sc1ccccc1C(=O)Nc1ccc2c(c1)n(C)c(=O)n2C,"inconclusive [inhibitor, single point]",–
Cc1ccc(-n2c(SCC(=O)NCc3ccco3)nc3c(sc4ccccc43)c2=O)cc1,"inconclusive [inhibitor, single point]",–
CCC(=O)c1cn(CCOc2ccccc2OC)c2ccccc12,active: 8.91 µM,–
CCOC(=O)Cc1csc(NC(=O)CSc2nnnn2-c2ccc(C)c(C)c2)n1,inactive,–
COc1ccc(CC(=O)Nc2sc3c(c2C#N)CC(C)(C)NC3(C)C)cc1OC,inactive,–
O=C(COC(=O)CCc1c[nH]c2ccccc12)NC(c1ccccc1)c1ccccc1,inactive,–
COc1ccc(CN2C(=O)CC(=O)NC2=O)cc1,inactive,–

Structure (SMILES),Potency,"activity change, negative = inhibition"
O=C(CCSCc1ccccc1)Nc1ccc2c(c1)OCCO2,inactive,–
CC(C)(C)OC(=O)C[C@@H]1C/C=C\C[C@H](CC(=O)N(CCO)Cc2ccccc2)C(=O)N[C@H](Cc2ccccc2)COC1=O,inactive,–
CCCC(=O)NNc1c2ccccc2nc2ccccc12,active: 1.41 µM,–
COc1cc(C)ccc1OCCCOc1ccccc1Cl,"inconclusive [inhibitor, single point]",–
CCOC(=O)C1CCN(CC(O)COCc2ccc3c(c2)OCO3)CC1 (stereo not drawn),inactive,–
O=C(Cc1cccc(NC(=O)C2CCCN(C(=O)CCc3ccccc3)C2)c1)Nc1cccc(C(=O)N2CCOCC2)c1 (stereo not drawn),"inconclusive [inhibitor, partial curve]",–
O=C(CSc1oc(-c2ccccc2)nc1S(=O)(=O)c1ccccc1)NCC1CCCO1 (stereo not drawn),"inconclusive [inhibitor, single point]",–
Cc1nn(C)c(C(=O)Nc2ccc(Cl)c([N+](=O)[O-])c2)c1Cl,"inconclusive [inhibitor, single point]",–
CCn1c(C)c(C)c2cc(C(=O)NCCCN3CCCCCC3)ccc21,"inconclusive [inhibitor, single point]",–
O=C(CC1SC(N2CCOCC2)=NC1=O)Nc1ccc(Cl)cc1 (stereo not drawn),–,inconclusive: -100% [inhibitor]
C=CCNc1nc(N)c(C(=C(C#N)C#N)c2ccccc2)s1,"inconclusive [inhibitor, partial curve]",–
COc1ccc(NC(=S)Nc2cc(S(=O)(=O)N3CCCCC3)ccc2OC)cc1,inactive,–
Cc1cc(C)c(C#N)c(SCC(O)COc2ccc(Br)cc2)n1 (stereo not drawn),"inconclusive [inhibitor, partial curve]",–
CCCc1cc(=O)oc2c(C)c(O[C@@H]3O[C@H](CO)[C@@H](O)[C@H](O)[C@H]3O)ccc12,"inconclusive [inhibitor, single point]",–
COc1ccc2ccccc2c1CN1CCN(C(=O)c2ccco2)CC1,"inconclusive [inhibitor, partial curve]",–
CC(C)C(NC(=O)c1ccc(F)cc1)C(=O)N1CCOCC1 (stereo not drawn),inactive,–
Cc1ccc(S(=O)(=O)N2CCN(c3ncnc4sccc34)CC2)cc1,active: 6.31 µM,–
COc1cc(NC(=O)/C=C/c2ccccc2[N+](=O)[O-])cc(OC)c1,"inconclusive [inhibitor, full curve, poor fit]",–
Cc1c(C(=O)NCc2cccnc2)oc2ccc(S(=O)(=O)N3CCCCC3)cc12,"inconclusive [inhibitor, single point]",–
CC1CCC(NC(=O)c2ccc(N3CCCC3=O)cc2)CC1 (stereo not drawn),"inconclusive [inhibitor, single point]",–
COc1ccc2c(c1)c(=O)oc1cc(OCC(=O)N3CCCC(C)C3)ccc12 (stereo not drawn),"inconclusive [inhibitor, single point]",–
Cc1cc(C(=O)N/N=C/c2cccc([N+](=O)[O-])c2)c(C)n1-c1ccccc1,"inconclusive [inhibitor, single point]",–
CCCCn1cnc2c(SCCc3ccccc3)nc(N)nc21,"inconclusive [inhibitor, partial curve]",–
